Measurements reported in publication PMC6602471.
The list shows a part of the results. At the low end of the ranking, values are background and their order means little.

molecular target: T1, ETS1 (UniProt P14921); assay: custom PBM; details: custom protein-binding microarray; buffer, salt, pH and temperature not stated; high values mean tight binding; double strand, one strand shown
T1 sequence: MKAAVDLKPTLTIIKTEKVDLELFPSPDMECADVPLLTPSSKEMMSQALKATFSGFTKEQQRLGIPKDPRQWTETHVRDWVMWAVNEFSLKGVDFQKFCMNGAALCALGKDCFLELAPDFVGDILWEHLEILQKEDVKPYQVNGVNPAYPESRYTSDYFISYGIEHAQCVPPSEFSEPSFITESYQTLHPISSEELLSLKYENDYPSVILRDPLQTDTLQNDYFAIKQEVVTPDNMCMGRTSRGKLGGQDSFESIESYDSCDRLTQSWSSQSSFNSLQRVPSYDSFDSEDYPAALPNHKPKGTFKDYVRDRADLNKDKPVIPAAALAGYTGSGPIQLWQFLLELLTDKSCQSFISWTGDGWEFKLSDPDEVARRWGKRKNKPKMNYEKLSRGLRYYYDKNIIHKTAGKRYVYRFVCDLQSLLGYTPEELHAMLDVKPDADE

Sequence | binding signal (log fluorescence intensity)
CGGAAGTGTCGTAAACGTCGCATATCCGGTTCTTCTGTCTTGATTCGCTTGACGCTGCTG | 12.2
GCTGCTGCGGTGCATACCCCACCGGATGTTACCCCGGTCTTGATTCGCTTGACGCTGCTG | 9.95
GTGTATAGGATCCCATCCAACACACGCGTTAAAATGGTCTTGATTCGCTTGACGCTGCTG | 8.37
CACACTTTTTACAGTAATGTAGCACGCGTAACTCCTGTCTTGATTCGCTTGACGCTGCTG | 8.35
GTGTATAGGATCCCATTCAACACACGTGTTAAAATGGTCTTGATTCGCTTGACGCTGCTG | 8.37
GGAAAAAGGCCCAGGGTAACACTGGAAGTGGGCTTAGTCTTGATTCGCTTGACGCTGCTG | 8.22
GTGTATAGGATCCCATCCAACACACGTATTAAAATGGTCTTGATTCGCTTGACGCTGCTG | 8.25
GTGTATAGGATCCCATCCAACACACGGGTTAAAATGGTCTTGATTCGCTTGACGCTGCTG | 8.23
TGTCGGGTAAGGGAATGTAGATCACGTGAATGAGAAGTCTTGATTCGCTTGACGCTGCTG | 8.19
TGTCGGGTAAGGGAATGCAGATCACGTGAATGAAAAGTCTTGATTCGCTTGACGCTGCTG | 8.31
TGTCGGGTAACGGAATGTAGATCACGTGAATGAAAAGTCTTGATTCGCTTGACGCTGCTG | 8.29
TAAAGGGAAGAAGGTTGTGGTAGTTCCGGGTATTAAGTCTTGATTCGCTTGACGCTGCTG | 8.45
CACAATTTTTAAAGTAATGTAGCACGCGTAACTCCTGTCTTGATTCGCTTGACGCTGCTG | 8.18
TCCGGCTACCAGCTCCACCCACTACAGGCCTTGTAGGTCTTGATTCGCTTGACGCTGCTG | 8.3
CGGAAGTGTCTTAAACGTCGGATATCCGGTTCTTCTGTCTTGATTCGCTTGACGCTGCTG | 11.6
TCCGGCTACCAGCTCCACCCACTTCAGGCCTTATAGGTCTTGATTCGCTTGACGCTGCTG | 8.46
GGTCGGGTAAGGGAATGTAGATCACGTGAATGAAAAGTCTTGATTCGCTTGACGCTGCTG | 8.16
TCCGGCTACCAGCTCCACCCACTTCAGGACTTGTAGGTCTTGATTCGCTTGACGCTGCTG | 8.2
GACTAATTTCTGCCCTTATTCGCACGTGCCATAACAGTCTTGATTCGCTTGACGCTGCTG | 8.22
CACAATTTTTACAGTACTGTAGCACGCGTAACTCCTGTCTTGATTCGCTTGACGCTGCTG | 8.28
CACAATTTTTACAGTAATGTAGCATGCGTAACTCCTGTCTTGATTCGCTTGACGCTGCTG | 8.22

Sequence | binding signal (log fluorescence intensity)
GATTAATTTCTGCCCTTATTCGCACGTGCCACAACAGTCTTGATTCGCTTGACGCTGCTG | 8.16
CAGCATAGGACTTCTTCCCTGAAGTAATTGATAACCGTCTTGATTCGCTTGACGCTGCTG | 8.12
TGTGGGGTAAGGGAATGTAGATCACGTGAATGAAAAGTCTTGATTCGCTTGACGCTGCTG | 8.1
CACAATTTTTACAGTAATGTAGCACGCGTAACTCCGGTCTTGATTCGCTTGACGCTGCTG | 8.22
TGTCGGGTAAGAGAATGTAGATCACGTGAATGAAAAGTCTTGATTCGCTTGACGCTGCTG | 7.97
CAGCATGGGACTTCTTCCCTGAAGCAATTGATAACCGTCTTGATTCGCTTGACGCTGCTG | 8.29
TGTCGGGTAAGGGAATGTAGAGCACGTGAATGAAAAGTCTTGATTCGCTTGACGCTGCTG | 8.04
TGTCGGGTAAGGGAATGTAGATCACGAGAATGAAAAGTCTTGATTCGCTTGACGCTGCTG | 8.19
TGTCGGTTAAGGGAATGTAGATCACGTGAATGAAAAGTCTTGATTCGCTTGACGCTGCTG | 8.38
GATTAATTTCTGCCCTTATTCGCACGTGCCAAAACAGTCTTGATTCGCTTGACGCTGCTG | 8.27
GGAAAAAGGCCGAGGGTAACACCGGAAGTGGGCTTAGTCTTGATTCGCTTGACGCTGCTG | 12
GATTAATTTCTGCCCTTATTCCCACGTGCCATAACAGTCTTGATTCGCTTGACGCTGCTG | 8.23
TACTGATTTATATATGCGAATGCACATGAATAGACCGTCTTGATTCGCTTGACGCTGCTG | 8.08
TGTCGGGAAAGGGAATGTAGATCACGTGAATGAAAAGTCTTGATTCGCTTGACGCTGCTG | 8.16
GGAAAAAGGCCCACGGTAACACCGGAAGTGGGCTTAGTCTTGATTCGCTTGACGCTGCTG | 12.2
TCAGGCTACCAGCTCCACCCACTTCAGGCCTTGTAGGTCTTGATTCGCTTGACGCTGCTG | 8.33
CACAATTTTTACAGTAATGTAGCACGCGTAGCTCCTGTCTTGATTCGCTTGACGCTGCTG | 8.34
GGGAAGTGTCGTAAACGTCGGATATCCGGTTCTTCTGTCTTGATTCGCTTGACGCTGCTG | 11.9
TAAAGGGAAGACGGTTGTGGTCGTTCCGGGTATTAAGTCTTGATTCGCTTGACGCTGCTG | 8.44
CAGCATAGGACTTCTTCCCTGAAGCAATTGATGACCGTCTTGATTCGCTTGACGCTGCTG | 8.27
